Paper PMC2703783
Results are given in words; binding and its absence hold for the method and conditions named. Binding seen in cells or lysates may run through a third protein. Some binding calls cover weakened binding; strength is not graded here. For some of these results: Where a sequence is shown, tags or fusion partners need not be part of it.

Amino acid sequences for entries named in this document (tags omitted).
UniProt P37476: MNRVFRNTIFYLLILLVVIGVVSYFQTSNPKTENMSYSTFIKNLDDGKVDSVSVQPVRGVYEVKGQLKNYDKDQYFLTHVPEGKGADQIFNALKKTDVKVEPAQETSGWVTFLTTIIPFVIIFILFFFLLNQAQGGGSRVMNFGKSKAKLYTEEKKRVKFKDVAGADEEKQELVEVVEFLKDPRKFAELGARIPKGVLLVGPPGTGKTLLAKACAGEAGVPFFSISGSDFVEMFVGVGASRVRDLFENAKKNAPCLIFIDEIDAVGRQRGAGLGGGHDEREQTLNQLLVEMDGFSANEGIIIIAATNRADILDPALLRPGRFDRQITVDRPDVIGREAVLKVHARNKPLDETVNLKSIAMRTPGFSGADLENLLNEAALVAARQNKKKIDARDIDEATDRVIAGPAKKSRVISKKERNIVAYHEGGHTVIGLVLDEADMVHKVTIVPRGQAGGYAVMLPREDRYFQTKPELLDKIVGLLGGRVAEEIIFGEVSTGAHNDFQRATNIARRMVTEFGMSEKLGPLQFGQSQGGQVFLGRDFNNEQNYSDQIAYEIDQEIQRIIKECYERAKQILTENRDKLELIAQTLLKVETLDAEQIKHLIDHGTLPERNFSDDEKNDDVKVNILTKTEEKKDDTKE

Experiments:
[1] = target: T1, CFP-SpoIIQ fusion (Bacillus subtilis) (UniProt P71044); test: co-IP; anti-GFP antibody resin; membrane extracts of sporulating B. subtilis (hour 2.5) solubilized with the mild detergent digitonin; immunoblot
T1 sequence: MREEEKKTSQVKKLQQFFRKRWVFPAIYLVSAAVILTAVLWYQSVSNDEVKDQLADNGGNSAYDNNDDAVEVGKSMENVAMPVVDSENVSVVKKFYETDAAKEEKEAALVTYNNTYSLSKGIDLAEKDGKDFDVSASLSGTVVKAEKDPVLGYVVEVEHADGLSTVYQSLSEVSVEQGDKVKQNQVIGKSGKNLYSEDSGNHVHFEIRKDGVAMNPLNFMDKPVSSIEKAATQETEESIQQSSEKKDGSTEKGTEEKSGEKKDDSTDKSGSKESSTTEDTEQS

[2] = target: T2, myc-tagged SpoIIIAD fusion (Bacillus subtilis) (UniProt P49781); test: co-IP; data not shown: anti-Myc antibody resin, and blots for SpoIIIAA, SpoIIIAH and SpoIIQ in the immunoprecipitates from DDM-solubilized membranes
T2 sequence: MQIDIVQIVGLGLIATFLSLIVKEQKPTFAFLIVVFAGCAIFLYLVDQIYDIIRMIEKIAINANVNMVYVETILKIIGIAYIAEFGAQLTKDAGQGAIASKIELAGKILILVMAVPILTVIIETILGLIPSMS

[3] = target: T3, SpoIIIAF (Bacillus subtilis (endogenous in sporulating B. subtilis cells)) (UniProt P49783); test: co-IP; anti-SpoIIIAG, anti-SpoIIIAE or anti-SpoIIIAF antibody resin; membrane fraction of sporulating B. subtilis (hour 2.5) solubilized with 0.5% DDM; 4 h at 4°C; washed with Buffer S with 0.01% DDM; immunoblot
T3 sequence: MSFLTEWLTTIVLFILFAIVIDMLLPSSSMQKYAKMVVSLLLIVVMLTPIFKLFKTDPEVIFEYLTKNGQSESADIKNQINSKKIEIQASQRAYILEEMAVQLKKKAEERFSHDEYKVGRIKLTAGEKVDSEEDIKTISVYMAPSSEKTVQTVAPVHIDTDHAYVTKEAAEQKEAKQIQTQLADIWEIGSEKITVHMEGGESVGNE

[4] = target: T4, SpoIIIAG (Bacillus subtilis (endogenous in sporulating B. subtilis cells)) (UniProt P49784); test: as above
T4 sequence: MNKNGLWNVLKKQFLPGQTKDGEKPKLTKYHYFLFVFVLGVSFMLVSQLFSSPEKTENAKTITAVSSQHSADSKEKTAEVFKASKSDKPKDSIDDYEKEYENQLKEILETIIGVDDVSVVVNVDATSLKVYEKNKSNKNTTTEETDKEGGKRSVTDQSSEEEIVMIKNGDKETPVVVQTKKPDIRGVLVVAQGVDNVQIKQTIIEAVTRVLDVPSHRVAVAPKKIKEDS

[5] = target: T5, SpoIIIAE (Bacillus subtilis (endogenous in sporulating B. subtilis cells)) (UniProt P49782); test: as above
T5 sequence: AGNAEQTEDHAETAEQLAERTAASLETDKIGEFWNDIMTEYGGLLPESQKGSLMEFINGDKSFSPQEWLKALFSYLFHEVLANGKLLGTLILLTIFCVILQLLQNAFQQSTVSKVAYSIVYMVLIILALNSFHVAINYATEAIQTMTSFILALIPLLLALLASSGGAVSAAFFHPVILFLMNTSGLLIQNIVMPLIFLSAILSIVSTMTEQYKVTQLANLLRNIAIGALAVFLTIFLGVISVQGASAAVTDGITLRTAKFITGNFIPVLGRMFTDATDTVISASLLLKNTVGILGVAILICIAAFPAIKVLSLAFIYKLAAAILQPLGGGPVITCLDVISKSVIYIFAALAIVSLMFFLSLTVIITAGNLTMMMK

[6] = target: T1, CFP-SpoIIQ fusion (Bacillus subtilis); test: co-IP; data not shown: anti-GFP antibody resin, digitonin-solubilized membrane extracts, detection of SpoIIIAG
[7] = target: FLAG-tagged FtsH (Bacillus subtilis) (UniProt P37476); test: co-IP; anti-FLAG M2-agarose; cleared lysates of protoplasts lysed in hypotonic buffer (50 mM Tris pH 7.5, 1 mM EDTA), without detergent; immunoblot
[8] = target: T6, FLAG-tagged SpoIIIAH (Bacillus subtilis) (UniProt P49785); test: as above
T6 sequence: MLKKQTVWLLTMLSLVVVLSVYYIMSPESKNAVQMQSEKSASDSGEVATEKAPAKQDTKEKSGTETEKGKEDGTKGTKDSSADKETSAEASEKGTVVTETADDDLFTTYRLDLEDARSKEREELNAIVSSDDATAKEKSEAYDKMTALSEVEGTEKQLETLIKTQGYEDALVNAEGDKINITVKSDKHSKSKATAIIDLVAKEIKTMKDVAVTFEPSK

| Binder | binding [1] | binding [2] | binding [3] | binding [4] | binding [5] | binding [6] | binding [7] | binding [8] |
| --- | --- | --- | --- | --- | --- | --- | --- | --- |
| SpoIIIAE (protein, UniProt P49782 25-399) AGNAEQTEDHAETAEQLAERTAASLETDKIGEFWNDIMTEYGGLLPESQKGSLMEFINGDKSFSPQEWLKALFSYLFHEVLANGKLLGTLILLTIFCVILQLLQNAFQQSTVSKVAYSIVYMVLIILALNSFHVAINYATEAIQTMTSFILALIPLLLALLASSGGAVSAAFFHPVILFLMNTSGLLIQNIVMPLIFLSAILSIVSTMTEQYKVTQLANLLRNIAIGALAVFLTIFLGVISVQGASAAVTDGITLRTAKFITGNFIPVLGRMFTDATDTVISASLLLKNTVGILGVAILICIAAFPAIKVLSLAFIYKLAAAILQPLGGGPVITCLDVISKSVIYIFAALAIVSLMFFLSLTVIITAGNLTMMMK | binds weakly | binds | binds | binds | – | – | – | – |
| SpoIIIAF (protein, UniProt P49783 1-206) MSFLTEWLTTIVLFILFAIVIDMLLPSSSMQKYAKMVVSLLLIVVMLTPIFKLFKTDPEVIFEYLTKNGQSESADIKNQINSKKIEIQASQRAYILEEMAVQLKKKAEERFSHDEYKVGRIKLTAGEKVDSEEDIKTISVYMAPSSEKTVQTVAPVHIDTDHAYVTKEAAEQKEAKQIQTQLADIWEIGSEKITVHMEGGESVGNE | binds weakly | binds | – | binds | binds | – | – | – |
| SpoIIIAG (protein, UniProt P49784 1-229) MNKNGLWNVLKKQFLPGQTKDGEKPKLTKYHYFLFVFVLGVSFMLVSQLFSSPEKTENAKTITAVSSQHSADSKEKTAEVFKASKSDKPKDSIDDYEKEYENQLKEILETIIGVDDVSVVVNVDATSLKVYEKNKSNKNTTTEETDKEGGKRSVTDQSSEEEIVMIKNGDKETPVVVQTKKPDIRGVLVVAQGVDNVQIKQTIIEAVTRVLDVPSHRVAVAPKKIKEDS | – | binds | binds | – | binds | binds weakly | no binding | binds |
| SpoIIQ (protein, UniProt P71044 1-283) MREEEKKTSQVKKLQQFFRKRWVFPAIYLVSAAVILTAVLWYQSVSNDEVKDQLADNGGNSAYDNNDDAVEVGKSMENVAMPVVDSENVSVVKKFYETDAAKEEKEAALVTYNNTYSLSKGIDLAEKDGKDFDVSASLSGTVVKAEKDPVLGYVVEVEHADGLSTVYQSLSEVSVEQGDKVKQNQVIGKSGKNLYSEDSGNHVHFEIRKDGVAMNPLNFMDKPVSSIEKAATQETEESIQQSSEKKDGSTEKGTEEKSGEKKDDSTDKSGSKESSTTEDTEQS | – | – | – | – | – | – | – | binds |
| myc-tagged SpoIIIAD fusion (protein, UniProt P49781 1-133) MQIDIVQIVGLGLIATFLSLIVKEQKPTFAFLIVVFAGCAIFLYLVDQIYDIIRMIEKIAINANVNMVYVETILKIIGIAYIAEFGAQLTKDAGQGAIASKIELAGKILILVMAVPILTVIIETILGLIPSMS | – | – | – | binds | – | – | – | – |
| SpoIID (protein, UniProt P07372 1-343) MKQFAITLSVLCALILLVPTLLVIPFQHNKEAGASVESEKTAVSTKPASKGAETLKASPVSIPVYRTANQSVENIPLEEYVIGVVASEMPATFKPEALKAQALAARTFIVRLMVSNSAVEAPKGSLVDDTQMFQVYKSKAELKKQWGTSYETKLKKITDAVASTQGKILTYNNQPIEASFFSTSNGYTENAEAYWTSAIPYLKSVKSPWDKKSPKYKATKTFTAAEFQQKLGVKLDGSSAVGKITGETPGHQVATAVINGKTLKGRDIREKLGLNSADFEWKRNGDTITVTTRGFGHGVGMSQYGANFMAKEGKTVDDIVKYYYQGTQISEADAFLNKYMAKK | – | – | no binding | no binding | no binding | – | – | – |
